# Reference: the supplement of paper PMC8728848
# Some of the results follow.
# What was measured:
# Assay in all cases: glycan array binding signal (z-score within array); higher = stronger binding
# Details in all cases: glycan notation: IUPAC condensed, linker removed
# [1] = molecular target: Fuc(a1-2)Gal(b1-4)GlcNAc(b1-3)Gal(b1-4)GlcNAc(b1-3)Gal(b1-4)GlcNAc
# How it was run: (§1)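 Columns mapping to the same glycan were averaged after glycan names were converted to IUPAC-condensed notation. The data come from 3228 arrays in the Consortium for Functional Glycomics database, limited to those with an available protein sequence. Binding is reported as a within-array Z-score averaged across arrays of one protein sequence and across linkers.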
# [2] = molecular target: Fuc(a1-2)Gal(b1-4)GlcNAc(b1-3)GalNAc
# How it was run: as §1
# [3] = molecular target: Fuc(a1-2)Gal(b1-4)GlcNAc(b1-3)[Fuc(a1-2)Gal(b1-4)GlcNAc(b1-6)]GalNAc
# How it was run: as §1
# [4] = molecular target: Fuc(a1-2)Gal(b1-4)GlcNAc(b1-3)[Fuc(a1-3)[Gal(b1-4)]GlcNAc(b1-6)]Gal(b1-4)Glc
# How it was run: as §1
# [5] = molecular target: Fuc(a1-2)Gal(b1-4)GlcNAc(b1-6)GalNAc
# How it was run: as §1
# [6] = molecular target: Fuc(a1-2)Gal(b1-4)GlcNAc6S
# How it was run: as §1
# [7] = molecular target: Fuc(a1-2)Gal(b1-4)[Fuc(a1-3)]GlcNAc
# How it was run: as §1
# [8] = molecular target: Fuc(a1-2)Gal(b1-4)[Fuc(a1-3)]GlcNAc(b1-2)Man(a1-3)[Fuc(a1-2)Gal(b1-4)[Fuc(a1-3)]GlcNAc(b1-2)Man(a1-6)]Man(b1-4)GlcNAc(b1-4)[Fuc(a1-6)]GlcNAc
# How it was run: as §1
# [9] = molecular target: Fuc(a1-2)Gal(b1-4)[Fuc(a1-3)]GlcNAc(b1-2)[Fuc(a1-2)Gal(b1-4)[Fuc(a1-3)]GlcNAc(b1-4)]Man(a1-3)[Fuc(a1-2)Gal(b1-4)[Fuc(a1-3)]GlcNAc(b1-2)Man(a1-6)]Man(b1-4)GlcNAc(b1-4)GlcNAc
# How it was run: as §1
# [10] = molecular target: Fuc(a1-2)Gal(b1-4)[Fuc(a1-3)]GlcNAc(b1-3)Gal(b1-4)[Fuc(a1-3)]GlcNAc
# How it was run: as §1
# [11] = molecular target: Fuc(a1-2)Gal(b1-4)[Fuc(a1-3)]GlcNAc(b1-3)Gal(b1-4)[Fuc(a1-3)]GlcNAc(b1-3)Gal(b1-4)[Fuc(a1-3)]GlcNAc
# How it was run: as §1
# [12] = molecular target: Fuc(a1-2)Gal(b1-4)[Fuc(a1-3)]GlcNAc(b1-3)GalNAc
# How it was run: as §1
# [13] = molecular target: Fuc(a1-2)Gal(b1-4)[Fuc(a1-3)]GlcNAc(b1-3)[Neu5Ac(a2-6)Gal(b1-4)GlcNAc(b1-6)]Gal(b1-4)Glc
# How it was run: as §1
# [14] = molecular target: Fuc(a1-2)Gal3S(b1-4)GlcNAc
# How it was run: as §1
# [15] = molecular target: Fuc(a1-2)Gal6S(b1-3)GlcNAc
# How it was run: as §1
# [16] = molecular target: Fuc(a1-2)Gal6S(b1-3)GlcNAc6S
# How it was run: as §1
# Fuc(a1-2)Gal6S(b1-4)Glc = molecular target: Fuc(a1-2)Gal6S(b1-4)Glc
# How it was run: as §1
# [17] = molecular target: Fuc(a1-2)Gal6S(b1-4)Glc6S
# How it was run: as §1
# Fuc(a1-2)[Gal(a1-3)]Gal = molecular target: Fuc(a1-2)[Gal(a1-3)]Gal
# How it was run: as §1
# [18] = molecular target: Fuc(a1-2)[Gal(a1-3)]Gal(b1-3)GalNAc
# How it was run: as §1
# [19] = molecular target: Fuc(a1-2)[Gal(a1-3)]Gal(b1-3)GalNAc(b1-3)Gal(a1-4)Gal(b1-4)Glc
# How it was run: as §1
# [20] = molecular target: Fuc(a1-2)[Gal(a1-3)]Gal(b1-3)GlcNAc
# How it was run: as §1
# [21] = molecular target: Fuc(a1-2)[Gal(a1-3)]Gal(b1-3)GlcNAc(b1-2)Man(a1-3)[Fuc(a1-2)[Gal(a1-3)]Gal(b1-3)GlcNAc(b1-2)Man(a1-6)]Man(b1-4)GlcNAc(b1-4)GlcNAc
# How it was run: as §1
# [22] = molecular target: Fuc(a1-2)[Gal(a1-3)]Gal(b1-3)GlcNAc(b1-2)Man(a1-3)[Fuc(a1-2)[Gal(a1-3)]Gal(b1-3)GlcNAc(b1-2)Man(a1-6)]Man(b1-4)GlcNAc(b1-4)[Fuc(a1-6)]GlcNAc
# How it was run: as §1
# [23] = molecular target: Fuc(a1-2)[Gal(a1-3)]Gal(b1-3)GlcNAc(b1-3)GalNAc
# How it was run: as §1
# [24] = molecular target: Fuc(a1-2)[Gal(a1-3)]Gal(b1-3)GlcNAc(b1-6)GalNAc
# How it was run: as §1
# [25] = molecular target: Fuc(a1-2)[Gal(a1-3)]Gal(b1-4)Glc
# How it was run: as §1
# [26] = molecular target: Fuc(a1-2)[Gal(a1-3)]Gal(b1-4)GlcNAc
# How it was run: as §1
# [27] = molecular target: Fuc(a1-2)[Gal(a1-3)]Gal(b1-4)GlcNAc(b1-2)Man
# How it was run: as §1
# [28] = molecular target: Fuc(a1-2)[Gal(a1-3)]Gal(b1-4)GlcNAc(b1-2)Man(a1-3)[Fuc(a1-2)[Gal(a1-3)]Gal(b1-4)GlcNAc(b1-2)Man(a1-6)]Man(b1-4)GlcNAc(b1-4)GlcNAc
# How it was run: as §1
binder,measurement,setting,value
RBMC1 (Vibrio cholerae) (protein) QQSQRVVTADNLMYLRSGFAIDAIGTTVNNLVGGPVQGTNGGVLRAPIALDQLQSVEVTSGLYNWGGYHIVAIKFTMKDGSSVLLGSTHYASNKKVETYTVPQGKRIKQINVWTGGWLVEGFQFVY,glycan array binding signal (z-score),[1],-0.261
same,glycan array binding signal (z-score),[2],-0.391
same,glycan array binding signal (z-score),[3],-0.353
same,glycan array binding signal (z-score),[4],-0.425
same,glycan array binding signal (z-score),[5],-0.105
same,glycan array binding signal (z-score),[6],-0.261
same,glycan array binding signal (z-score),[7],-0.347
same,glycan array binding signal (z-score),[8],0.113
same,glycan array binding signal (z-score),[9],-0.111
same,glycan array binding signal (z-score),[10],-0.321
same,glycan array binding signal (z-score),[11],-0.201
same,glycan array binding signal (z-score),[12],-0.306
same,glycan array binding signal (z-score),[13],-0.396
same,glycan array binding signal (z-score),[14],-0.111
same,glycan array binding signal (z-score),[15],-0.281
same,glycan array binding signal (z-score),[16],0.041
same,glycan array binding signal (z-score),Fuc(a1-2)Gal6S(b1-4)Glc,-0.306
same,glycan array binding signal (z-score),[17],-0.303
same,glycan array binding signal (z-score),Fuc(a1-2)[Gal(a1-3)]Gal,-0.15
same,glycan array binding signal (z-score),[18],-0.252
same,glycan array binding signal (z-score),[19],-0.195
same,glycan array binding signal (z-score),[20],-0.249
same,glycan array binding signal (z-score),[21],-0.043
same,glycan array binding signal (z-score),[22],-0.324
same,glycan array binding signal (z-score),[23],-0.2
same,glycan array binding signal (z-score),[24],-0.29
same,glycan array binding signal (z-score),[25],-0.236
same,glycan array binding signal (z-score),[26],-0.311
same,glycan array binding signal (z-score),[27],-0.302
same,glycan array binding signal (z-score),[28],0.321
